We go through 88 compounds from PubChem BioAssay AID463173 (ICCB-Longwood Screening Facility, Harvard Medical School, 2010).

In all, about 52,000 compounds went through this assay and about 1,700 (3.3%) were called active. No stated cut-off is given here; in the data, active means survival mostly below about 52% (no sharp cut-off); inactive means mostly above about 56%. The list shows a part of the results.

This assay deals with Wild type. Kind of assay: growth inhibition of S. aureus wild type versus tarO mutant, primary screen, teichoic acid synthesis inhibitors, RN4220, OD600 (AID 463173). To be noted: S. aureus RN4220 wild type/DeltatarO growth, OD600, 18 h, active compounds read low, screened at 18.75 µg/mL (by protocol).
For `Cc1ccc(NC(=O)C(C)Sc2nc(N)cc(N)n2)c(C)c1` (stereo not drawn), the survival was inactive: 108%.
Take `COc1cc(OC)c(NC(=O)C(Cc2ccccc2)NS(=O)(=O)c2cccc3nsnc23)cc1Cl` (stereo not drawn): the survival was inactive: 82%.
As for `CN(C)c1ccc(NC(=O)CSc2nc3ccsc3c(=O)n2CCCCCC(=O)O)cc1`, the survival is inactive: 70%.
Consider `O=C1CC2CCC(CN1)N2S(=O)(=O)c1ccc(C(=O)O)cc1` (stereo not drawn), for which the survival is inactive: 107%.
As to `Cc1c(C(=O)N(Cc2ccco2)Cc2ccccc2Cl)oc2ccc(F)cc12`, the survival was inactive: 84%.
Then `COc1ccc(CC(=O)Nc2cc(-c3cn4cccnc4n3)ccc2OC)cc1`, with inactive: 119%; and `CCCCC(=O)NC1(C(F)(F)F)C(=O)Nc2c1c(=O)[nH]c(=O)n2-c1ccc(C)c(C)c1` (stereo not drawn), with inactive: 64%.
Regarding `O=C(Nc1ccc2nc(SCCOc3ccccc3Cl)sc2c1)c1ccc2c(c1)OCO2`, the survival is inactive: 89%.
To `CC(C)CCNC(=O)CN1C(=O)c2cccnc2Sc2ccccc21` belongs inactive: 69%.
As for `CC(=O)c1cccc(NC(=O)Cc2noc3ccccc23)c1`, the survival was inactive: 90%.
As to `CCS(=O)(=O)c1ccccc1C(=O)Nc1ccc(-c2nc3ccccc3s2)cc1`, the survival was inactive: 77%.
Turning to `COc1cccc(NC(=O)CSC2=Nc3ccccc3C3=NC(CC(=O)NCc4ccc5c(c4)OCO5)C(=O)N23)c1` (stereo not drawn), the survival is inactive: 143%.
To `Cc1cc(C)c(NC(=O)C(=O)NCC(c2cccnc2)N2CCN(Cc3ccccc3)CC2)c(C)c1` (stereo not drawn) belongs inactive: 84%.
Take `O=C(c1cccnc1)N1N=C(C(F)(F)F)CC1(O)c1cccnc1` (stereo not drawn): the survival is inactive: 97%.
As for `Cc1ccccc1-c1noc(-c2ccc(N3CCN(C)CC3)c([N+](=O)[O-])c2)n1`, the survival is inactive: 73%.
To `c1ccc(-n2nnnc2NC2CCCCCC2)cc1` belongs inactive: 104%; to `COc1ccc(C)cc1NC(=O)Nc1ccccc1OCc1cc(=O)n2ccccc2n1`, inactive: 73%.
To `CCCCNC(=O)c1cnc2sc(N3CCCCCC3)nn2c1=O` belongs inactive: 85%.
As to `CSc1nn(Cc2cccc(Cl)c2)c(N(C(C)=O)C(C)=O)c1S(=O)(=O)c1ccccc1`, the survival was inactive: 62%.
For `COc1ccc2c(c1)c1c(c(=O)n(-c3ccccc3)c(=O)n1CC(=O)NCc1ccc(C)cc1)n2C`, the survival is inactive: 70%.
Turning to `O=C(CSc1nnc(COc2ccccc2)o1)N1CCCC1`, the survival is inactive: 106%.
As to `CC(C)COC(=O)c1nnsc1NC(=O)Nc1ccccc1`, the survival was inactive: 96%.
As to `COc1ccc(C2C(=O)N(C3CCC(C)CC3)CC(=O)N2C2CCCC2)cc1OC` (stereo not drawn), the survival is active: -4%.
As to `COc1ccc(CC(=O)N(Cc2nc(-c3ccc(C)cc3)no2)C(C)C)cc1`, the survival is inactive: 33%.
As to `O=C(CSc1nc2nccnc2c(=O)n1CCc1c[nH]c2ccccc12)Nc1ccc(F)cc1`, the survival is inactive: 42%.
On to `CN(C)c1ccc(C(CNS(=O)(=O)c2ccc(F)cc2)N2CCOCC2)cc1` (stereo not drawn), for which the survival is inactive: 83%.
In the case of `CC(C)CNC(=O)c1cccc(NC(=O)C(C)C)c1`, the survival was inactive: 94%.
As to `COc1ccc(-n2cc(C(=O)OCc3ccc(Cl)cc3)c3ccccc3c2=O)cc1`, the survival was inactive: 143%.
With `Cc1sc(-n2c(C)cc(/C=C(\C#N)C(=O)NCc3ccco3)c2C)c(C#N)c1C`, the survival is inactive: 118%.
To `O=C(O)CC1CCS(=O)(=O)C1` (stereo not drawn) belongs inactive: 103%; to `COc1ccc(NC(=O)C2CCN(S(=O)(=O)c3ccc4c(c3)CCCC(=O)N4)CC2)c(OC)c1`, inactive: 111%; to `CCOc1ccc(Nc2sc(C(=O)c3cccc(OC)c3)c(N)c2S(=O)(=O)c2ccccc2)cc1`, inactive: 77%.
With `CCC(C(=O)Nc1ccc(C(=O)OC)cc1)n1nc(-c2ccc(C)c(C)c2)ccc1=O` (stereo not drawn), the survival was inactive: 102%.
For the compound `Cc1c(C(=O)OC2CCCCCC2)[nH]c2c1C(=O)CC(c1ccc(N(C)C)cc1)C2` (stereo not drawn), the survival is inactive: 123%.
To `COc1cc(OC)cc(C(=O)Nc2cc(-c3nc4cccnc4s3)ccc2C)c1` belongs inactive: 91%; to `CCOc1ccc(CNC(=O)Cn2ccc3cc(S(=O)(=O)N4CCCCC4)ccc32)cc1`, inactive: 80%; to `Cc1ccc(NC(=O)CSc2ccc(-c3ccccn3)nn2)cc1F`, inactive: 85%.
Then `COc1ccc(S(=O)(=O)N(CC(=O)NCCSCc2ccccc2)c2ccc(C)cc2)cc1`, with inactive: 68%; and `Cn1c(=O)c(=O)n(C)c2cc(S(=O)(=O)N3CCCC3C(=O)Nc3ccc(F)cc3)ccc21` (stereo not drawn), with inactive: 82%.
To `O=C(c1ccccc1Br)N1CCC(c2nc3ccccc3o2)CC1` belongs inactive: 77%; to `Cc1ccc(Cn2c(=O)n(-c3cc(C)cc(C)c3)c(=O)c3oc4ccccc4c32)cc1`, inactive: 77%.
For `COc1ccc(S(=O)(=O)N(Cc2nc(-c3ccc(Cl)cc3)no2)C2CCCCC2)cc1`, the survival is inactive: 111%.
`Cc1ccc(S(=O)(=O)NCc2ccc(C(=O)NCCc3cccc(C)c3)cc2)cc1`: the survival was inactive: 91%.
Then `N#Cc1c(C(F)(F)F)cc(-c2cccs2)nc1SCC(=O)Nc1cccc(C(F)(F)F)c1`, with inactive: 67%.
Then `Cc1oc(C)c2c(=O)cc(-c3ccc4c(c3)OCO4)cc(OC(=O)c3cccc(Cl)c3)c12`, with inactive: 115%; and `CCC1(c2csc(Nc3ccccc3C)n2)CCC(=O)O1` (stereo not drawn), with inactive: 112%; and `O=S(=O)(c1ccc(-n2cnnn2)cc1)N1CCN(c2cccc(C(F)(F)F)c2)CC1`, with inactive: 98%.
Consider `COc1cc(Cl)c(C)cc1NC(=O)c1sc2nc(C)cc(C)c2c1N`, for which the survival was inactive: 85%.
Take `Cc1ccsc1CN(C(=O)COc1cccc(C)c1C)C1CCS(=O)(=O)C1` (stereo not drawn): the survival is inactive: 90%.
In the case of `COc1cc(C(=O)N(Cc2cccnc2)c2nc3cc(C)c(C)cc3s2)cc(OC)c1OC`, the survival was inactive: 22%.
For the compound `CCOC(=O)COc1ccc(F)cc1C(=O)c1ccn2nc(-c3ccc(C)cc3)cc2n1`, the survival was inactive: 76%.
Turning to `CN1C(=O)C(C)(C)c2cc(S(=O)(=O)N3CCCC3C(=O)Nc3ccc(F)cc3)ccc21` (stereo not drawn), the survival was inactive: 81%.
Consider `COc1ccccc1NC(=O)C(Cc1ccccc1)NS(=O)(=O)c1cccc2nsnc12` (stereo not drawn), for which the survival was inactive: 78%.
For the compound `Cc1cc2cc3c(cc2nc1SCC(=O)OC(C)C)OCO3`, the survival is inactive: 106%.
`COc1ccc(OC)c(NC(=O)CSc2nc3ccccc3c(=O)n2CCC(=O)NC2CCCCC2)c1`: the survival was inactive: 78%.
`O=C(Cn1c(SCC(=O)Nc2ccc(F)cc2)nc2ccccc21)NCc1ccccc1Cl`: the survival is inactive: 75%.
As for `CCCCOC(=O)c1cccc(NC(=O)/C=C/c2ccccc2Cl)c1`, the survival was active: 7%.
As to `COC(=O)c1ccc(Cl)cc1NC(=O)N(Cc1ccc(OC)cc1)C1CCN(C(C)=O)CC1`, the survival was active: -6%.
As for `CC(=O)Nc1n[nH]c(-c2ccc(C)cc2)n1`, the survival was inactive: 104%.
In the case of `O=C(CCC1N=C2c3ccccc3N=C(SCC(=O)Nc3ccc(F)cc3)N2C1=O)NCc1cccs1` (stereo not drawn), the survival is inactive: 68%.
Then `Cc1cccc(NC(=O)c2ccc(CNS(=O)(=O)c3ccc4c(c3)C(C)(C)C(=O)N4C)cc2)c1`, with inactive: 91%.
Take `Cc1ccccc1C(=O)N(Cc1ccc(N(C)C)cc1)CC1CCCO1` (stereo not drawn): the survival is inactive: 85%.
On to `Cc1ccc(N2CCN(C(=O)NCc3noc4ccc(C)cc34)CC2)c(C)c1`, for which the survival was inactive: 53%.
Turning to `O=C(NCCOCCn1c(=O)oc2ccccc21)Nc1cccc(Cl)c1`, the survival is inactive: 79%.
In the case of `COc1ccccc1NC(=O)CSC1=Nc2ccccc2C2=NC(CC(=O)NCc3ccc4c(c3)OCO4)C(=O)N12` (stereo not drawn), the survival was inactive: 120%.
On to `COC(=O)c1ccc(C(=O)OC)c(NC(C)=O)c1`, for which the survival was inactive: 103%.
For `CCOC(=O)c1noc2ncnc(NCc3ccccc3OC)c12`, the survival was inactive: 72%.
Turning to `COc1ccccc1N=C1SC(C(=O)Nc2ccccc2OC)CC(=O)N1C` (stereo not drawn), the survival was inactive: 73%.
In the case of `Cc1ccc(CNC(=O)c2sc3nc4n(c(=O)c3c2C)CCCCC4)cc1`, the survival was inactive: 79%.
On to `COC(=O)c1ccccc1NC(=O)C1CCCN(c2ncnc3onc(C)c23)C1` (stereo not drawn), for which the survival was inactive: 77%.
With `CC(C)c1ccc(NC(=O)c2ccc3c(O)c(S(=O)(=O)c4ccccc4)c(=O)[nH]c3c2)cc1`, the survival was inactive: 83%.
Turning to `CNC(=O)c1c(-c2ccccc2)oc2ccc(OC)cc12`, the survival was inactive: 102%.
In the case of `Cc1ccc(-n2nc(C(=O)N(C)Cc3ccccc3)c3c4ccccc4n(C)c3c2=O)cc1`, the survival was inactive: 116%.
In the case of `NC(=O)C1CCN(C(=O)COc2ccc(Cl)cc2Cl)CC1`, the survival was inactive: 104%.
To `Cc1ccc(C(=O)N(c2ccc(C)cc2)S(=O)(=O)c2ccc(Cl)cc2)cc1` belongs inactive: 73%.
Turning to `O=c1c2ccccc2n2c(-c3ccccc3F)nnc2n1CCc1ccccc1`, the survival was inactive: 78%.
With `COc1cc(OC)c(N(C)C(=O)c2cc3c(=O)oc4ccccc4c3s2)cc1Cl`, the survival is inactive: 66%.
As to `Cc1ccc(-n2c(=O)c3c(c4cc(C)ccc4n3C)n(Cc3ccc(F)cc3)c2=O)cc1`, the survival is inactive: 136%.
`CCOC(=O)C1=NN(C(=O)COc2ccccc2)C(O)(c2ccc(Br)cc2)C1` (stereo not drawn): the survival is inactive: 113%.
To `Cc1ccc(NC(=O)C(Cc2ccccc2)N2Cc3ccccc3C2=O)cc1Cl` (stereo not drawn) belongs inactive: 98%.
To `CCN(C(=O)c1c(C)oc2ncn(CC(C)C)c(=O)c12)c1cccc(Cl)c1` belongs inactive: 63%; to `COC(=O)c1cn(CC(=O)Nc2ccc(OC)cc2)c2ccccc12`, inactive: 92%.
Regarding `CCCCNC(=O)CCn1c(=O)c2cccn2c2cccnc21`, the survival was inactive: 108%.
Consider `Cc1oc(-c2ccc(C(=O)NCc3ccccc3Cl)cc2)nc1CN1CCc2ccccc21`, for which the survival is inactive: 67%.
To `CCCn1c(CCC(=O)Nc2ccc(C)c(Cl)c2)nc2cccnc21` belongs inactive: 84%; to `COc1ccc(C)cc1NC(=O)c1cc(S(=O)(=O)N2CCc3ccccc3C2)ccc1F`, inactive: 75%.
Turning to `CCC1=C(c2ccc(C)cc2)S(=O)(=O)N=C1N1CCC(C(=O)NCCc2ccc(Cl)cc2)CC1`, the survival is inactive: 77%.
On to `O=C(CC1N=C2c3ccccc3N=C(SCc3cccc(Cl)c3)N2C1=O)NCCc1ccccc1` (stereo not drawn), for which the survival is inactive: 126%.
